# Where “and” joins values, the source holds several entries; their conditions need not be identical. Identical values can stand only once. About 11,000 (3.5%) of roughly 310,000 compounds were called active. The inconclusive results got no clear call from the source; some entries with a clear call stand among them for comparison. The call rests on the fitted dose curve; in most records, active means well fitted inhibition curve with a large enough effect; inconclusive means small, poorly fitted or top-dose-only effect, or effect the other way; inactive means flat fitted curve, though single readings scatter. A potency beside an inconclusive call is a rough fit, not a confirmed value. Some structures have more than one record in an assay (separate samples or runs), and their calls can disagree.
# Assay: VP16 counterscreen qHTS for inhibitors of ROR gamma transcriptional activity;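 further: Gal4-VP16 expression switched on by copper sulfate through the metallothionein promoter; nearly all actives have a fitted effect of over 50% in size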
# Settings: Drosophila S2 Gal4-VP16 UAS-luciferase, luminescence, 20 h; activity, negative = inhibition: at 53.6 µM (top of the series)
# On the % scale 0 is the no-effect control and ±100 the full control effect; potency means the concentration at half of the fitted maximal effect; tags describe the fitted curve by direction and shape.
SMILES,Potency,"activity, negative = inhibition"
COc1ccc([N+](=O)[O-])cc1NC(=O)Nc1ccc(OC)c(OC)c1,"inconclusive: 35.5 µM [inhibitor, single point]",
CCCN1C(=O)/C(=C/c2ccc(C)o2)NC1=S,"inconclusive: 35.5 µM [inhibitor, single point]",
Cc1nc2ccc(NC(=O)c3cc(S(=O)(=O)N(C)c4ccccc4)ccc3Cl)cc2s1,"inconclusive: 12.6 µM [inhibitor, partial curve, poor fit]",
Cc1ccc(C(=O)N/N=C\c2ccc([N+](=O)[O-])s2)cn1,active: 3.16 µM,
CCn1c(SCC(=O)Nc2cc(C)on2)nnc1-c1c[nH]c2ccccc12,,inactive: 3.92%
O=C(COC(=O)C1CC1)NCc1ccccc1Cl,"inconclusive: 35.5 µM [inhibitor, single point]",
CCN(CCCNC(=O)CCc1nc(-c2ccc(C)cc2)no1)c1cccc(C)c1,,inactive: 2.36%
CCN1C(=O)/C(=C\N(C(C)=O)c2ccccc2)OC1=S,active: 10 µM,
COCCNC(=S)N/N=C/c1c(C)[nH]c2ccccc12,"inconclusive: 35.5 µM [inhibitor, single point]",
O=C(C1=C[C@H](c2ccc(C(F)(F)F)cc2)C[C@H](OCCCCO)O1)N1CCN(Cc2ccc3c(c2)OCO3)CC1,"inconclusive: 20 µM [inhibitor, single point]",
CCOC(=O)N1CCC(NS(=O)(=O)c2ccc(C#N)cc2)CC1,"inconclusive: 31.6 µM [inhibitor, single point]",
CCOC(=O)c1[nH]ncc1CN1CCCC(C(=O)c2ccc(SC)cc2)C1 (stereo not drawn),"inconclusive: 22.4 µM [inhibitor, single point]",
O=C(N/N=C/c1cccs1)c1cc(-c2ccc(Cl)s2)[nH]n1,active: 7.94 µM,
Cc1ccsc1/C=N/n1c(=S)[nH]nc(C)c1=O,"inconclusive: 35.5 µM [inhibitor, single point]",
CCN(c1cccc(C)c1)C(C(=O)Nc1ccc(OC)cc1)c1cc2c(cc1[N+](=O)[O-])OCO2 (stereo not drawn),"inconclusive: 5.62 µM [activator, single point]",
Cc1ccc(C)c(OCCCC(C)(C)C(=O)O)c1,active: 20 µM,
O=C(C1CCCCN1S(=O)(=O)c1ccccc1)N1CCCCC1 (stereo not drawn),,inactive: -3.45%
CC(=O)Oc1ccc(C(=O)Nc2ccc(C3(C#N)CCCC3)cc2)cc1,active: 0.398 µM,
Cc1cccc(NC(=O)C2CCCN(c3nc(C)cc(C)n3)C2)c1 (stereo not drawn),"inconclusive: 31.6 µM [inhibitor, single point]",
CCOc1ccc(NC(=S)N2CCN(S(C)(=O)=O)CC2)cc1,,inactive: -2.35%
COc1nc(N/N=C/c2ccccc2F)nc(N2CCCCC2)n1,,inactive: -11.5% [at 0.365 µM]
COc1ccc(C2CC(=O)c3cnc(NC(=O)c4ccccc4)nc3C2)c(OC)c1 (stereo not drawn),,inactive: -0.213%
CC(=O)Nc1ccc(S(=O)(=O)Nc2cccc(NC(=O)c3ccco3)c2)cc1,"inconclusive: 35.5 µM [inhibitor, single point]",
CCOCC(=O)Nc1ccc([N+](=O)[O-])cc1Cl,,inactive: 16.2%

SMILES,Potency,"activity, negative = inhibition"
COc1ccccc1-c1ccc2ncnc(N3CCN(C)CC3)c2c1,"inconclusive: 2.51 µM [inhibitor, partial curve]",
CCCN1CCN(CCCNC(=O)c2cc3c(s2)-c2c(C)cccc2OC3)CC1,,inactive: 6.49%
COc1ccc(Br)cc1/C=N/Nc1ccccn1,"inconclusive: 14.1 µM [inhibitor, single point]",
O=C(Nn1c(Cc2cccs2)nc2ccccc2c1=O)c1ccc(F)c(F)c1,,inactive: -2.38%
CC12CCC(C/C1=N\N=C1\NC(=O)/C(=C\c3cccc(Br)c3)S1)C2(C)C (stereo not drawn),active: 11.2 µM,
CC(C)(C)c1csc(NC(=O)c2ccc3nccnc3c2)n1,,inactive: -12.7%
Cc1ccc(NC(=O)C(=O)NCc2ccc(/C=N/NC(=O)c3c(C)nc4cc(C)ccn34)o2)cc1,"inconclusive: 35.5 µM [inhibitor, single point]",
CN(C)c1cccc(C(=O)Nc2ccc(N3CCOCC3)cc2)c1,,inactive: 5.87%
NNc1ccc2nnc(C(F)(F)C(F)(F)C(F)(F)F)n2n1,,inactive: 3.79%
Cc1ccc(Cl)cc1NC(=S)NCCCSC1CCCCC1,"inconclusive: 6.31 µM [inhibitor, single point]",
Cc1cc(C)nc(NC(=S)NC(=O)c2ccccc2)n1,"inconclusive: 28.2 µM [inhibitor, single point]",
O=C(NCc1cn(-c2ccccc2)nc1-c1ccccc1)c1cccc([N+](=O)[O-])c1,"inconclusive: 5.01 µM [inhibitor, single point]",
CCn1cc(C(=O)O)c(=O)c2cnc(N3CCN(C(=S)NC(=O)c4ccc(F)c(F)c4)CC3)nc21,"inconclusive: 35.5 µM [inhibitor, single point]",
Cc1cc(C)n(-c2nc3ccccc3c(=O)n2OCC(=O)Nc2c(C)cccc2C)n1,"inconclusive: 35.5 µM [inhibitor, single point]",
O=C(NCCCn1ccnc1)c1ccc(C(F)(F)F)cc1,,inactive: -21.2%
O=C(NC(=S)N(CC1CCC1)CC1CCCO1)c1cccc([N+](=O)[O-])c1 (stereo not drawn),active: 0.282 µM,
COc1cc([N+](=O)[O-])ccc1NC(=O)N1CCCCCC1,"inconclusive: 35.5 µM [inhibitor, single point]",
Cc1cc(C)c2c(NC(=S)Nc3ccccc3)n[nH]c2n1,active: 3.16 µM,
CC(C)CC1NC(=O)C(CCCN)NC(=O)C(C(C)C)NC(=O)C2CCCN2C(=O)C(Cc2ccccc2)NC(=O)C(CC(C)C)NC(=O)C(CCCN)NC(=O)C(C(C)C)NC(=O)C2CCCN2C(=O)C(Cc2ccccc2)NC1=O (stereo not drawn),active: 0.282 µM,
CCCNCCC(c1ccco1)c1ccccc1OC (stereo not drawn),"inconclusive: 11.2 µM [inhibitor, partial curve]",
COc1cc(/C=N/O)ccc1Oc1ccc([N+](=O)[O-])cc1[N+](=O)[O-],,inactive: -9.33%
Cc1onc(-c2ccccc2)c1-c1n[nH]c(=S)n1-c1ccccc1Cl,active: 15.8 µM,
Cn1ccnc1SCc1cn2cc(Br)ccc2n1,active: 10 µM,
O=C(O)c1cc(O)c2c(c1)C(=O)c1cc(O)cc(O)c1C2=O,"inactive and inconclusive: 11.2 µM [inhibitor, partial curve, poor fit]",

# — PubChem BioAssay AID2546 (National Center for Advancing Translational Sciences (NCATS), 2010)
